# The list shows a part of the results.
# System: T1, C. trachomatis L2/434/Bu expressing GFP (CTL2-GFP)
# T1 construct: L2/434/Bu GFP intracellular growth in HeLa cells
# Set-up: species or system HeLa; C. trachomatis total inclusion area by high-content imaging, normalised to DMSO
# Conditions: total inclusion area; 28.5 h, 10 µM; inhibitor
# How it was run: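 High-content images of fixed, Hoechst-stained infected cultures supply inclusion area and count (growth) plus nuclei number (viability), complementing bulk GFP/resorufin fluorescence. MIC determination is unchanged from the primary assay.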
row,Structure (SMILES),% of control remaining
1,CCc1c(C)sc(NC(=O)CSc2nnnn2C)c1C(=O)OC [CBK270312],84.5822
2,COc1ccccc1-c1nnc(SCc2cccc(C(=O)O)c2)[nH]1 [CBK269952],101.548
3,N#C/C(=C\c1ccc(OCC(=O)c2ccccc2)cc1)c1nc(-c2cccs2)cs1 [CBK266765],64.1274
4,CCOCCn1c(=O)c2c(nc3oc(C(C)(C)C)cn32)n(C)c1=O [CBK307567],74.995
5,CN1CCC(OCCCn2ccnc2-c2nccn2C)CC1 [CBK307683],79.4561
6,O=C(CCN1C(=O)/C(=C\C=C\c2ccccc2)SC1=S)Nc1cc(Cl)ccc1O [CBK264792],110.771
7,COc1cc(CNc2nnn[nH]2)cc(Cl)c1OC [CBK288087],85.4485
8,Cn1nnnc1SCC(=O)Nc1ccc(Cl)c(Cl)c1 [CBK058218],55.8959
9,CCCCN1CCC(CNc2cc(C(F)(F)F)c3scc(C(=O)NC4CCC4)c3n2)CC1 [CBK034026C],45.7925
10,C[C@@H](Cn1nc2c(cc1=O)CCCC2)NC(=O)c1cccc(F)c1 [CBK284561],124.254
11,COc1cccc(CC(=O)Nc2ncccc2O)c1 [CBK305047],49.7549
12,COc1ccc2[nH]cc(CCNC(=O)CC(C)O)c2c1 (stereo not shown) [CBK116201],107.663
13,CN1CC(=O)N2CCOC(C2)c2cccc(n2)NC(=O)C/C=C/CC2(CCN(Cc3ncc[nH]3)CC2)C1=O (stereo not shown) [CBK292196],126.533
14,COc1ccc(-c2cnc(N)c(N[C@H](C)c3ccccc3)n2)c(OC)c1OC [CBK063747],66.0198
15,O=C(Nc1ccc2n(c1=O)C[C@H]1C[C@@H]2CN(C(=O)COc2ccccc2)C1)C1CCCCC1 [CBK289175],108.832
16,CC(C)c1nn(C)c(N(C)C)c1CNCCc1cnn(C)c1 [CBK305135],53.8573
17,O=C(NCc1cccs1)c1ccc(-c2ccc(OC(F)(F)F)cc2)nc1 [CBK156221],63.0311
18,CS(=O)(=O)N1CCN(C2CCN(Cc3ccccc3)CC2)CC1 [CBK263485],111.539
19,Cc1cc(C(F)(F)F)nc(CCNC(=O)N(Cc2ccsc2)C2CC2)n1 [CBK307468],57.8787
20,NC(=O)CN1CC2(CCN(C(=O)OCc3ccccc3)CC2)c2ccccc21 [CBK116309],69.7024
21,COc1ccc(Oc2cncc(OC3CCN(CCc4ccc(F)cc4)C3)n2)cc1OC (stereo not shown) [CBK084409],93.2981
22,CCn1c(S)nnc1CNC(=O)c1ccc(Cl)cc1Cl [CBK267152],128.715

# Reference: paper PMC12040169 (PLOS Biology, 2025)
